Numbering of substitutions follows the chain as printed. No constants are given. Whether binding was seen depends on the method and setting. In cells and extracts the contact can be indirect. Some entries that bind do so weakly or less than the wild type. Tags and fused reporters may be left off the sequences shown.
Experiments:
Assay in all cases: pull-down; GST or GST fusion proteins immobilized on glutathione-Sepharose beads, incubated with 293T cell extracts (~200 μg total protein) in 20 mM Hepes pH 7.5, 50–150 mM NaCl, 1% Triton X-100, 0.5 mM PMSF, 0.5 ml, 60 min at room temperature; four washes; Western blot with anti-HA or anti-FLAG; only the target purified
[1] = molecular target: T1, GST-LBRNt(62–92)S76G (turkey (cDNA said to be of chicken LBR)) (UniProt P23913)
T1 sequence: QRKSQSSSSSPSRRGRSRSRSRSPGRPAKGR

Chains of the proteins cited; added tags and fusions are not shown.
UniProt Q96SB4: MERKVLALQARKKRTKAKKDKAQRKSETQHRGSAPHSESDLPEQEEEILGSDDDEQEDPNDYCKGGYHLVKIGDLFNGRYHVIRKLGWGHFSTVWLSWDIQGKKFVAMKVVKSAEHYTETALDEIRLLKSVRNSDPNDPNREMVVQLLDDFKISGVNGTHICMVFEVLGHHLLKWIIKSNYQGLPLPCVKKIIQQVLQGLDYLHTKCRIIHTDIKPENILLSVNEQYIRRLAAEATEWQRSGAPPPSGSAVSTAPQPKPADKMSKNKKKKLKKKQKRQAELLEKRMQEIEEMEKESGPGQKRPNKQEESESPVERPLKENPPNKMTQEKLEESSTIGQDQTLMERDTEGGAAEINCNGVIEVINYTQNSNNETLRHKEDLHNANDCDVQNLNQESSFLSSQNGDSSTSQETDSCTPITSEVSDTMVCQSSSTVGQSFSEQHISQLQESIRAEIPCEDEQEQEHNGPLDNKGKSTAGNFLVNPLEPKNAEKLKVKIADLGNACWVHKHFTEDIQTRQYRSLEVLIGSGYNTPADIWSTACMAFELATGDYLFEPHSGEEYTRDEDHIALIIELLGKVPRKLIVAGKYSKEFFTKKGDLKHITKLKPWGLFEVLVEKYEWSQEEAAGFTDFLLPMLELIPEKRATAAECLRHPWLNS
UniProt P31751: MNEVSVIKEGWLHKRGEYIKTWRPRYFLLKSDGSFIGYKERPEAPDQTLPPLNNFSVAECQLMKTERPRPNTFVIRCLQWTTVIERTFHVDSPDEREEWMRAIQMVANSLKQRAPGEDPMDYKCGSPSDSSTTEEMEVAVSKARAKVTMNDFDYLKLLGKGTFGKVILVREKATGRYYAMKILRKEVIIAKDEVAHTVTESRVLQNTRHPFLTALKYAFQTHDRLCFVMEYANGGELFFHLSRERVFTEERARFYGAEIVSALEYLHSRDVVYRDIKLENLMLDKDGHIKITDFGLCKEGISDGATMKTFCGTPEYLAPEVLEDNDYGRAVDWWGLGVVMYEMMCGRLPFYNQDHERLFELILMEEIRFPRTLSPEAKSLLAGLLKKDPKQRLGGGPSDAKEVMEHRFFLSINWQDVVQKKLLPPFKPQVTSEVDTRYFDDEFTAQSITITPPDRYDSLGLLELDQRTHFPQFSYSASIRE
UniProt P31749: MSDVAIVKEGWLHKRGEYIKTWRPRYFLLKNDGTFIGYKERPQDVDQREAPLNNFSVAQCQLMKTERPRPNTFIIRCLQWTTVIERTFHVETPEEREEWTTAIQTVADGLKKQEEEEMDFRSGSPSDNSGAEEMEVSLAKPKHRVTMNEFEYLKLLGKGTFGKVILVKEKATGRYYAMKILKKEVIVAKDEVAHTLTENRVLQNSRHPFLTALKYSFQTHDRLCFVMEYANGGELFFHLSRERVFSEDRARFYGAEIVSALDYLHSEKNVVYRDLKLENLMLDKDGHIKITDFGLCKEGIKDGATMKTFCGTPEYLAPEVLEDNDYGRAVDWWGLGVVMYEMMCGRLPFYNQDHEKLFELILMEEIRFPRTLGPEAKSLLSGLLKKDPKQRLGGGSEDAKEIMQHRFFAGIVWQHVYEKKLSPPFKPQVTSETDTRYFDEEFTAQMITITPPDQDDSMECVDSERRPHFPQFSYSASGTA

[2] = molecular target: T2, GST-LBRNt(62–92)S82A (turkey (cDNA said to be of chicken LBR)) (UniProt P23913)
T2 sequence: T1 sequence with G15S, S21A

[3] = molecular target: T3, GST-LBRNt(62–92)ΔRS (turkey (cDNA said to be of chicken LBR)) (UniProt P23913)
T3 sequence: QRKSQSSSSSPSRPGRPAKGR

[4] = molecular target: T4, GST-LBRNt(62–92)S80A (turkey (cDNA said to be of chicken LBR)) (UniProt P23913)
T4 sequence: T1 sequence with G15S, S19A

[5] = molecular target: T5, GST-LBRNt(62–92)S78G (turkey (cDNA said to be of chicken LBR)) (UniProt P23913)
T5 sequence: T1 sequence with G15S, S17G

[6] = molecular target: T6, GST-LBRNt(62–92)S84A (turkey (cDNA said to be of chicken LBR)) (UniProt P23913)
T6 sequence: T1 sequence with G15S, S23A

[7] = molecular target: T7, GST-LBRNt(62–92) (turkey (cDNA said to be of chicken LBR)) (UniProt P23913)
T7 sequence: T1 sequence with G15S

Substance	binding [1]	binding [2]	binding [3]	binding [4]	binding [5]	binding [6]	binding [7]
FLAG-SRPK1 (from UniProt Q96SB4 1-655) (enzyme)	binds	binds	no binding (tested: extract, ~200 μg of total protein)	binds	binds	binds	binds
myristoylated FLAG-Akt2 (from UniProt P31751 1-481) (enzyme)	no binding (tested: extract, ~200 μg of total protein)	no binding (tested: extract, ~200 μg of total protein)	no binding (tested: extract, ~200 μg of total protein)	no binding (tested: extract, ~200 μg of total protein)	no binding (tested: extract, ~200 μg of total protein)	no binding (tested: extract, ~200 μg of total protein)	no binding (tested: extract, ~200 μg of total protein)
myristoylated HA-Akt1 (from UniProt P31749 1-480) (enzyme)	no binding (tested: extract, ~200 μg of total protein)	no binding (tested: extract, ~200 μg of total protein)	no binding (tested: extract, ~200 μg of total protein)	no binding (tested: extract, ~200 μg of total protein)	no binding (tested: extract, ~200 μg of total protein)	no binding (tested: extract, ~200 μg of total protein)	no binding (tested: extract, ~200 μg of total protein)

Reference: paper PMC4841541
